# Measured values: the supplement of paper PMC10037445
# In all, about 2,900 compounds were measured (“NF-kB SEAP reporter activity, fold change vs agonist alone”: median about 0.99, highest 2% from about 2.6 on). Some of the results follow.
# Columns and labels:
# RAW-Dual [1] = assay: NF-kB SEAP reporter activity, fold change vs agonist alone; cytotoxicity flag (confluency mask): not cytotoxic; higher = enhanced NF-kB activity
# Summary of the method: (§1)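 RAW-Dual macrophages (50,000 cells/well in DMEM, 384-well plates) received 50 nL of library stock by pin tool, then a PRR agonist 1 h later, and were kept at 37 °C, 5% CO2. After 20 hours, supernatant was read for IRF by QuantiLuc luminescence and for NF-κB by QuantiBlue absorbance at 620 nm. Reporter activity is fold change over agonist-alone wells. Cytotoxic wells had IncuCyte confluency below 70% of agonist controls in both mask sets.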
# RAW-Dual [2] = assay: NF-kB SEAP reporter activity, fold change vs agonist alone; higher = enhanced NF-kB activity; settings: library stock concentration (final ~1000-fold dilution): 10 mM
# Summary of the method: as §1
# RAW-Dual [3] = assay: NF-kB SEAP reporter activity, fold change vs agonist alone; cytotoxicity flag (confluency mask): cytotoxic (confluency <70% of control); higher = enhanced NF-kB activity
# Summary of the method: as §1
# [4] = agonist: ODN 1826 (TLR9) 0.5 ug/mL
# [5] = agonist: Pam2CSK4 (TLR2/6) 0.1 ug/mL
# [6] = agonist: Pam3CSK4 (TLR2/1) 0.1 ug/mL
# [7] = cytotoxicity flag (confluency mask): not cytotoxic, agonist: Imiquimod (TLR7) […]
# [8] = cytotoxicity flag (confluency mask): not cytotoxic, agonist: MPLA (TLR4) […]
structure (smiles),measurement,setting,value
CCCCCCC[n+]1ccc(-c2cc[n+](CCCCCCC)cc2)cc1 (library stock concentration (final ~1000-fold dilution): 10 mM),NF-kB SEAP reporter activity,RAW-Dual [1]; agonist: LPS (TLR4) 0.1 ug/mL,3.95
same,NF-kB SEAP reporter activity,RAW-Dual [1]; [4],1.17
same,NF-kB SEAP reporter activity,RAW-Dual [1]; [5],1.02
same,NF-kB SEAP reporter activity,RAW-Dual [1]; [6],1.14
CC(C)=CCOc1c2occc2cc2ccc(=O)oc12,NF-kB SEAP reporter activity,RAW-Dual [2]; [7],0.983
same,NF-kB SEAP reporter activity,RAW-Dual [2]; [8],1.15
CC(C)=CCOc1c2occc2cc2ccc(=O)oc12 (library stock concentration (final ~1000-fold dilution): 10 mM),NF-kB SEAP reporter activity,RAW-Dual [1]; agonist: LPS (TLR4) 0.1 ug/mL,1.19
same,NF-kB SEAP reporter activity,RAW-Dual [1]; [4],0.946
same,NF-kB SEAP reporter activity,RAW-Dual [1]; [5],0.977
same,NF-kB SEAP reporter activity,RAW-Dual [1]; [6],0.953
O=c1ccc2ccc3occc3c2o1,NF-kB SEAP reporter activity,RAW-Dual [2]; [7],0.823
same,NF-kB SEAP reporter activity,RAW-Dual [2]; [8],0.995
O=c1ccc2ccc3occc3c2o1 (library stock concentration (final ~1000-fold dilution): 10 mM),NF-kB SEAP reporter activity,RAW-Dual [1]; agonist: LPS (TLR4) 0.1 ug/mL,0.918
same,NF-kB SEAP reporter activity,RAW-Dual [1]; [4],0.845
same,NF-kB SEAP reporter activity,RAW-Dual [1]; [5],0.881
same,NF-kB SEAP reporter activity,RAW-Dual [1]; [6],1.02
COc1ccc(/C=C/c2cc(OC)cc(OC)c2)cc1 (library stock concentration (final ~1000-fold dilution): 10 mM),NF-kB SEAP reporter activity,RAW-Dual [1]; agonist: LPS (TLR4) 0.1 ug/mL,1.35
same,NF-kB SEAP reporter activity,RAW-Dual [1]; [4],1.03
same,NF-kB SEAP reporter activity,RAW-Dual [1]; [5],0.767
same,NF-kB SEAP reporter activity,RAW-Dual [1]; [6],0.815
COc1ccc(/C=C/c2cc(OC)cc(OC)c2)cc1,NF-kB SEAP reporter activity,RAW-Dual [2]; [7],0.911
same,NF-kB SEAP reporter activity,RAW-Dual [2]; [8],1.25
CC12CCC3C(CCC4=C(O)C(=O)CCC43C)C1CCC2=O (configuration not stated),NF-kB SEAP reporter activity,RAW-Dual [2]; [7],0.986
same,NF-kB SEAP reporter activity,RAW-Dual [2]; [8],1.01
CC12CCC3C(CCC4=C(O)C(=O)CCC43C)C1CCC2=O (configuration not stated) (library stock concentration (final ~1000-fold dilution): 10 mM),NF-kB SEAP reporter activity,RAW-Dual [1]; agonist: LPS (TLR4) 0.1 ug/mL,1.17
same,NF-kB SEAP reporter activity,RAW-Dual [1]; [4],1.21
same,NF-kB SEAP reporter activity,RAW-Dual [1]; [5],1.07
same,NF-kB SEAP reporter activity,RAW-Dual [1]; [6],1.23
COc1cc(C)[nH]c(=O)c1CNC(=O)c1c(C)n(C(C)C2CCN(CC(F)(F)F)CC2)c2ccccc12 (configuration not stated),NF-kB SEAP reporter activity,RAW-Dual [2]; [7],0.35
same,NF-kB SEAP reporter activity,RAW-Dual [2]; [8],0.914
COc1cc(C)[nH]c(=O)c1CNC(=O)c1c(C)n(C(C)C2CCN(CC(F)(F)F)CC2)c2ccccc12 (configuration not stated) (library stock concentration (final ~1000-fold dilution): 10 mM),NF-kB SEAP reporter activity,RAW-Dual [1]; agonist: LPS (TLR4) 0.1 ug/mL,0.78
same,NF-kB SEAP reporter activity,RAW-Dual [1]; [4],0.953
same,NF-kB SEAP reporter activity,RAW-Dual [1]; [5],0.647
same,NF-kB SEAP reporter activity,RAW-Dual [1]; [6],0.74
CC1=C(O)C(=O)C=C2C1=CC=C1C2(C)CCC2(C)C3CC(C)(C(=O)O)CCC3(C)CCC12C (configuration not stated),NF-kB SEAP reporter activity,RAW-Dual [2]; [7],0.191
same,NF-kB SEAP reporter activity,RAW-Dual [2]; [8],0.203
CC1=C(O)C(=O)C=C2C1=CC=C1C2(C)CCC2(C)C3CC(C)(C(=O)O)CCC3(C)CCC12C (configuration not stated) (library stock concentration (final ~1000-fold dilution): 10 mM),NF-kB SEAP reporter activity,RAW-Dual [1]; agonist: LPS (TLR4) 0.1 ug/mL,0.287
same,NF-kB SEAP reporter activity,RAW-Dual [1]; [4],0.179
same,NF-kB SEAP reporter activity,RAW-Dual [1]; [5],0.297
same,NF-kB SEAP reporter activity,RAW-Dual [1]; [6],0.119
O=c1[nH]c2ccccc2n1CCCN1CCC(n2c(=O)[nH]c3cc(Cl)ccc32)CC1 (library stock concentration (final ~1000-fold dilution): 10 mM),NF-kB SEAP reporter activity,RAW-Dual [1]; agonist: LPS (TLR4) 0.1 ug/mL,0.971
same,NF-kB SEAP reporter activity,RAW-Dual [1]; [4],0.2
same,NF-kB SEAP reporter activity,RAW-Dual [1]; [5],0.84
same,NF-kB SEAP reporter activity,RAW-Dual [1]; [6],1.06
O=c1[nH]c2ccccc2n1CCCN1CCC(n2c(=O)[nH]c3cc(Cl)ccc32)CC1,NF-kB SEAP reporter activity,RAW-Dual [2]; [7],1.07
same,NF-kB SEAP reporter activity,RAW-Dual [2]; [8],1.04
CC(=O)OC(C)(C)/C=C/C(=O)C(C)(O)C1C(O)CC2(C)C3CC=C4C(CC(O)C(=O)C4(C)C)C3(C)C(=O)CC12C (configuration not stated),NF-kB SEAP reporter activity,RAW-Dual [2]; [7],0.752
same,NF-kB SEAP reporter activity,RAW-Dual [2]; [8],0.271
CC(=O)OC(C)(C)/C=C/C(=O)C(C)(O)C1C(O)CC2(C)C3CC=C4C(CC(O)C(=O)C4(C)C)C3(C)C(=O)CC12C (configuration not stated) (library stock concentration (final ~1000-fold dilution): 10 mM),NF-kB SEAP reporter activity,RAW-Dual [1]; agonist: LPS (TLR4) 0.1 ug/mL,0.218
same,NF-kB SEAP reporter activity,RAW-Dual [1]; [4],0.209
same,NF-kB SEAP reporter activity,RAW-Dual [1]; [5],0.103
same,NF-kB SEAP reporter activity,RAW-Dual [1]; [6],0.158
CC1CCCC(=O)CCC/C=C/c2cc(O)cc(O)c2C(=O)O1 (configuration not stated),NF-kB SEAP reporter activity,RAW-Dual [2]; [7],0.82
same,NF-kB SEAP reporter activity,RAW-Dual [2]; [8],1.36
CC1CCCC(=O)CCC/C=C/c2cc(O)cc(O)c2C(=O)O1 (configuration not stated) (library stock concentration (final ~1000-fold dilution): 10 mM),NF-kB SEAP reporter activity,RAW-Dual [1]; agonist: LPS (TLR4) 0.1 ug/mL,1.76
same,NF-kB SEAP reporter activity,RAW-Dual [1]; [4],0.856
same,NF-kB SEAP reporter activity,RAW-Dual [1]; [5],1.08
same,NF-kB SEAP reporter activity,RAW-Dual [1]; [6],1.24
c1ccc2c(c1)Sc1ccccc1N2CC1CN2CCC1CC2 (configuration not stated) (library stock concentration (final ~1000-fold dilution): 10 mM),NF-kB SEAP reporter activity,RAW-Dual [3]; agonist: LPS (TLR4) 0.1 ug/mL,0.854
same,NF-kB SEAP reporter activity,RAW-Dual [3]; [4],0.455
same,NF-kB SEAP reporter activity,RAW-Dual [3]; [5],0.794
same,NF-kB SEAP reporter activity,RAW-Dual [3]; [6],0.746
c1ccc2c(c1)Sc1ccccc1N2CC1CN2CCC1CC2 (configuration not stated),NF-kB SEAP reporter activity,"RAW-Dual [2]; cytotoxicity flag (confluency mask): cytotoxic (confluency <70% of control), agonist: Imiquimod (TLR7) […]",1.89
same,NF-kB SEAP reporter activity,"RAW-Dual [2]; cytotoxicity flag (confluency mask): cytotoxic (confluency <70% of control), agonist: MPLA (TLR4) […]",1.76
Cc1c(C(C)C2NCC(C)CC2O)ccc2c1CC1C2CC=C2CC(O)CCC21C (configuration not stated),NF-kB SEAP reporter activity,RAW-Dual [2]; [7],0.945
same,NF-kB SEAP reporter activity,RAW-Dual [2]; [8],1.15
Cc1c(C(C)C2NCC(C)CC2O)ccc2c1CC1C2CC=C2CC(O)CCC21C (configuration not stated) (library stock concentration (final ~1000-fold dilution): 10 mM),NF-kB SEAP reporter activity,RAW-Dual [1]; agonist: LPS (TLR4) 0.1 ug/mL,1.1
same,NF-kB SEAP reporter activity,RAW-Dual [1]; [4],1.02
same,NF-kB SEAP reporter activity,RAW-Dual [1]; [5],0.866
same,NF-kB SEAP reporter activity,RAW-Dual [1]; [6],1.03
CS(=O)(=O)c1ccc(C(=O)C2C(=O)CCCC2=O)c(Cl)c1,NF-kB SEAP reporter activity,RAW-Dual [2]; [7],1.07
same,NF-kB SEAP reporter activity,RAW-Dual [2]; [8],1.05
CS(=O)(=O)c1ccc(C(=O)C2C(=O)CCCC2=O)c(Cl)c1 (library stock concentration (final ~1000-fold dilution): 10 mM),NF-kB SEAP reporter activity,RAW-Dual [1]; agonist: LPS (TLR4) 0.1 ug/mL,0.694
same,NF-kB SEAP reporter activity,RAW-Dual [1]; [4],0.826
same,NF-kB SEAP reporter activity,RAW-Dual [1]; [5],0.609
same,NF-kB SEAP reporter activity,RAW-Dual [1]; [6],0.667
O=S(=O)(CC1CS1)c1ccc(Oc2ccccc2)cc1 (configuration not stated),NF-kB SEAP reporter activity,RAW-Dual [2]; [7],1.14
same,NF-kB SEAP reporter activity,RAW-Dual [2]; [8],1.92
O=S(=O)(CC1CS1)c1ccc(Oc2ccccc2)cc1 (configuration not stated) (library stock concentration (final ~1000-fold dilution): 10 mM),NF-kB SEAP reporter activity,RAW-Dual [1]; agonist: LPS (TLR4) 0.1 ug/mL,1.92
same,NF-kB SEAP reporter activity,RAW-Dual [1]; [4],1.22
same,NF-kB SEAP reporter activity,RAW-Dual [1]; [5],0.846
same,NF-kB SEAP reporter activity,RAW-Dual [1]; [6],0.906
